Among all 50,000 compounds or so, about 800 (1.6%) showed an effect of 50% or more. Some of the results follow.

The target of this assay is Bcl-2-like protein 10 (Homo sapiens) (UniProt Q9HD36). The assay is described as follows: TR3 peptide-Bcl-B binding displacers, biochemical primary FP assay, phenotype converters (AID 1240).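 Also: 0% = Bcl-B with tracer peptide and DMSO and 100% = tracer peptide lacking Bcl-B.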 Conditions: GST-Bcl-B / FITC-TR3 peptide fluorescence polarization; stronger effect = higher value; compound at 3.75 mg/L. In general terms: In fluorescence polarisation assays a small probe gives low polarisation when free and higher when bound to something large.
Chain of UniProt Q9HD36 (Q9HD36 whole entry, looked up): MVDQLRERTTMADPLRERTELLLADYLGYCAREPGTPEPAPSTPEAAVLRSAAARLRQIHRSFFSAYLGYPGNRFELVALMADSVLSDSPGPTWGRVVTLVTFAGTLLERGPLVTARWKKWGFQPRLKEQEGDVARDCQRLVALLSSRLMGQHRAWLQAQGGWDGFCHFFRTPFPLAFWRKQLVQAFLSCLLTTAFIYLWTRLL
In the case of `Cc1ccc(S(=O)(=O)Oc2c(C=O)[nH]c3ccccc23)cc1`, the displacement was -2.2%.

On to `COc1ccc(CN2CCN(C3CCCCC3)CC2)cc1`, for which the displacement was -16.7%.

Regarding `Cc1ccc(N2C(=O)CN=C2Nc2nc(C)cc(C)n2)c(C)c1`, the displacement is -6%.

As to `COc1ccc(CNC23CN4CN(CN(C4)C2)C3)cc1`, the displacement was 1.8%.

As for `COc1ccc(NC(=O)c2ccc(N(C)S(=O)(=O)c3ccccc3)cc2)cc1OC`, the displacement worked out at 16.7%.

Consider `COc1cccc(/C=C2\SC(=S)N(c3cccc(C)c3C)C2=O)c1`, for which the displacement was -4.5%.

As to `CC(C)(C)c1cnnn1-c1ccc(/C=C/C(=O)c2ccccc2)cc1`, the displacement came out at 2.9%.

`O=C(/C=C/c1ccccc1)C1=C(O)C(=O)N(c2ccccn2)C1c1ccccc1F` (configuration not stated): the displacement turned out to be 93.5%.

With `COC(=O)C1=C(C)N(C)C(C)=C(C(=O)OC)C1c1cccc(OC)c1`, the displacement was -8.5%.

Consider `CC(C)(C)C1(O)CC(C(F)(F)F)=NN1C(=O)CCc1ccccc1` (configuration not stated), for which the displacement is -19.9%.

As to `C(=N\c1nc2ccccc2s1)/c1ccc(/C=N/c2nc3ccccc3s2)cc1`, the displacement is 0.5%.

For `O=c1c(Oc2ccccc2Br)c(C(F)(F)F)oc2c(CN3CCCC3)c(O)ccc12`, the displacement was determined as 0%.

Regarding `Cc1cc(Br)ccc1NC(=O)Cn1cnc2c1c(=O)n(C)c(=O)n2C`, the displacement was -8.7%.

Regarding `COc1cccc(/C=C2/SC(=S)N(CCC(=O)Nc3c(C)n(C)n(-c4ccccc4)c3=O)C2=O)c1`, the displacement worked out at 7.7%.

For the compound `CC(=O)c1c(C)oc2ccc(NS(=O)(=O)c3ccccc3C)cc12`, the displacement was 8.5%.

`Cc1cc(Br)cc2c(N=Nc3cccc4cccnc34)c(O)n(C)c12`: the displacement was found to be 4.9%.

Regarding `CC(=O)NC(NC(=S)Nc1cccc(Cl)c1)C(Cl)(Cl)Cl` (configuration not stated), the displacement is -1%.

As for `COc1ccc(Br)cc1C(=O)Nc1cccc(-c2nc3cc(C)ccc3o2)c1C`, the displacement is 20.2%.

For `O=C(Cn1nnc(-c2ccc(F)cc2)n1)N/N=C/c1ccc(-c2ccc3c(c2)COC3=O)o1`, the displacement is -18.8%.

In the case of `COc1ccc(N(CC(O)CN2C(=O)NC(C)(C)C2=O)S(=O)(=O)c2ccc(C)cc2)cc1` (configuration not stated), the displacement was 9.1%.

On to `CC(C)C(=O)Nc1ccc2oc(-c3cc(I)ccc3Cl)nc2c1`, for which the displacement turned out to be 14.2%.

On to `CCc1ccc(-c2nc(-c3cc(OC)c(OC)c(OC)c3)no2)cc1`, for which the displacement is -10.2%.

For `CC1(C)CC(=O)C2=C(C1)c1c(ccc3ccccc13)NC2c1cccs1` (configuration not stated), the displacement worked out at 7.2%.

For `O=C(/C=C\c1ccccc1)Nc1ccc(Br)cn1`, the displacement amounted to 2.3%.

`CCCCNc1cc(=O)n(C)c(=O)n1C`: the displacement turned out to be 6.5%.

With `Cc1nc2sc3c(c2c(=O)n1/N=C/c1cccnc1)CCCC3`, the displacement is -8.8%.

In the case of `COC(=O)c1ccc(-n2c(C)cc(/C=C3\NC(=S)NC3=O)c2C)cc1`, the displacement came out at 8.2%.

In the case of `COc1ccc(Br)cc1C(=O)Nc1ccc(-c2nc3ccccc3o2)cc1`, the displacement was 134%.

As for `O=C1Nc2c(Br)cc(Br)c3cccc1c23`, the displacement was -3.5%.

In the case of `COc1ccc(C2Nc3ccccc3C(=O)N2Cc2ccccc2)cc1Cn1nc(C)c(Br)c1C` (configuration not stated), the displacement was determined as 15.4%.

Regarding `CCC(CC)=N/N=C1/NC(=O)C(CC(=O)Nc2ccc(C(=O)O)cc2)S1` (configuration not stated), the displacement is -43%.

In the case of `CC(NC(=O)c1ccc(S(=O)(=O)N2CCCCC2)cc1)C12CC3CC(CC(C3)C1)C2` (configuration not stated), the displacement is -11.4%.

As to `O=C1OC(c2ccccc2)=N/C1=C\c1cccc(OC(F)(F)C(F)F)c1`, the displacement stood at 9.6%.

Regarding `CCn1c(=N)n(CC(=O)c2cc(C(C)(C)C)c(O)c(C(C)(C)C)c2)c2ccccc21`, the displacement was 3.8%.

Turning to `COc1ccccc1NC(=O)/C(=C/c1ccccc1)c1ccccc1`, the displacement stood at 12.8%.

Regarding `O=C(Cn1cc(/C=C2\SC(=O)NC2=O)c2ccccc21)Nc1ccccc1`, the displacement is -4.9%.

Regarding `O=C(NCCO)/C(=C/c1cccc([N+](=O)[O-])c1)NC(=O)c1cccs1`, the displacement stood at 0%.

Consider `CCC1=NN2C(=N)/C(=C/c3ccc(-c4ccc(C)c(Cl)c4)o3)C(=O)N=C2S1`, for which the displacement amounted to 3.9%.

Take `Cc1ccccc1N1CCN(C(=S)c2ccc(N(C)C)cc2)CC1`: the displacement turned out to be 12.2%.

On to `Cc1cc(C)c(NC(=O)C(C)N2C(=O)c3ccccc3C2=O)c(C)c1` (configuration not stated), for which the displacement turned out to be 10.5%.

For the compound `CCOC(=O)C1(C)C=C(Nc2ccc(O)c(C(=O)O)c2)C(=O)N1c1ccccc1` (configuration not stated), the displacement is 1.3%.

For the compound `COc1cc(/C=C2/C(=O)NN(c3ccc(C)cc3)C2=O)c([N+](=O)[O-])cc1OC`, the displacement amounted to 4.5%.

In the case of `O=C(CCCN1C(=O)/C(=C\c2ccc(F)cc2)SC1=S)Nc1ccc(O)cc1`, the displacement amounted to 1.8%.

In the case of `Cc1ccc(OCC(=O)N2CCN(c3ccccn3)CC2)c(Br)c1`, the displacement turned out to be 0.4%.

Consider `CCOC(=O)c1c(-c2ccccc2)oc2ccc(O)c(CN3CCCC3)c12`, for which the displacement is 9.4%.

In the case of `O=[N+]([O-])c1ccc(-c2noc(COc3cccc4ccccc34)n2)cc1`, the displacement was -1.7%.

Consider `CNC(=O)C(=O)NCCN1CCN(S(=O)(=O)c2ccc([N+](=O)[O-])cc2)CC1`, for which the displacement was -3%.

For `COc1ccc(-c2cc3c(ccc4ccccc43)oc2=O)cc1OC`, the displacement stood at 19.9%.

Take `O=C(Nc1nccs1)c1ccc(Oc2ccc(C(=O)Nc3nccs3)cc2)cc1`: the displacement is -0.1%.

For `CCOc1ccccc1N(CC(=O)Nc1ccccc1C(=O)OC)S(=O)(=O)c1ccccc1`, the displacement worked out at 10.7%.

As to `O=C(NCC1CCCO1)c1ccccc1` (configuration not stated), the displacement is -8%.

For the compound `Cc1ccc2[nH]c(C)c(CC(=O)N/N=C/c3ccco3)c2c1`, the displacement is -5.6%.

As for `COc1ccc(CC(=O)NNC(=O)c2ccccc2Cl)cc1`, the displacement is -8.7%.

As to `O=C(O)c1ccc(NC(=O)c2ccc(Br)cc2)cc1`, the displacement was -4.2%.

`C=CCn1c(SCC(=O)NCc2cccnc2)nc2sc3c(c2c1=O)CCCC3`: the displacement is -2.5%.

Take `O=C(CSc1nc2ccc([N+](=O)[O-])cc2[nH]1)c1ccc(Br)cc1`: the displacement was found to be 11.9%.

Take `N#CC(c1ccc(O)cc1)N1CCCCC1` (configuration not stated): the displacement was -9.1%.

As for `COc1ccc(C2CC(=O)C3=C(C2)Nc2ccccc2NC3c2ccc(Cl)c(Cl)c2)cc1OC` (configuration not stated), the displacement was determined as 5.9%.

With `CCOC(=O)c1ccc(NC(=O)c2cc3ccccc3oc2=O)cc1`, the displacement was -5.5%.

In the case of `CCN(CC)c1ccc(NC(=O)COc2cc(C)c(Cl)c(C)c2)cc1`, the displacement turned out to be 7.9%.

With `CC(C)(C)c1cc(N=NC(=O)c2ccncc2)cc(C(C)(C)C)c1O`, the displacement is -5.4%.

For the compound `CCOc1cccc(-c2nc3cc(OC)c(OC)cc3c(=O)o2)c1`, the displacement was 11.8%.

In the case of `COc1ccc(/C(N)=N/OC(=O)c2cccc(I)c2)cc1OC`, the displacement turned out to be 8%.

Take `O=C(Nc1ccc(Br)cc1F)C(Sc1ccccc1)c1ccccc1` (configuration not stated): the displacement is -5.7%.

In the case of `Oc1ccc(O)c(-c2csc(NN=C(c3ccccc3)c3ccccc3)n2)c1`, the displacement was -12.7%.

In the case of `COC(=O)c1c(-c2ccc(Br)cc2)csc1NC(=O)C1CCCCC1C(=O)O` (configuration not stated), the displacement was -6.6%.

For the compound `COc1ccc(N2C(=O)NC(=O)/C(=C/c3cc([N+](=O)[O-])cc(OC)c3O)C2=O)cc1`, the displacement is -15.8%.

The values above are taken from PubChem BioAssay AID1240 (Sanford-Burnham Center for Chemical Genomics, 2008).
